Measurements: the supplement of paper PMC11417369
± gives the standard deviation of the averaged measurements. The list shows a part of the results.

The sequences below were run on PfAP2-I AP2 domain 3 (GST-tagged) (assay: gcPBM binding intensity (ln(normalized median fluorescence intensity)); higher = stronger DNA binding).
Method in brief: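 An Agilent 4 × 180k array of primer-extended double-stranded 36-bp intergenic genomic probes, with negative controls, was incubated for 1 h with GST-tagged P. falciparum DNA-binding domains expressed in E. coli. Alexa488 anti-GST antibody detected bound protein, scanned at 488 nm. Binding intensity is the highest Masliner-normalised natural-log median intensity across replicate spots of either probe orientation.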

Sequence | gcPBM binding intensity (ln)
AAAAAAAAAAGGTGTACATGCAAAATAAATTCTTAA [TGCATGCA_site556] | 7.89 ± 0.61
TATGGTAACATATGCTGTACAATATAATATGTTTAA [XGTACX_site1601] | 7.72 ± 0.45
AAAAAAAAAAAACACACACACACACCGACAAAATAT [CACACA_site8411] | 8.12 ± 0.53
TAAACATAAATATACACACAAACATATATGTATTTT [CACACA_site1214] | 7.53 ± 0.43
AAATTATAAATACCTACACACTTATCAAAATAAATT [CACACA_site5280] | 7.64 ± 0.52
AATATTTTTTTATAAACACACATATATATAAATATA [CACACA_site3524] | 7.89 ± 0.33
TATATATTTTTATGTGTGCACTGTTTCATAAAAGAA | 10.5 ± 0.3
TAATAATTTATATATGCATGTCAAAATAATATTAAA [TGCATGCA_site12] | 7.89 ± 0.55
TATATAAATATAATATGTACATATAATATGTATATA [XGTACX_site8120] | 7.52 ± 0.2
ACTTATAAAATAACATGTACAAATATTTATTATATA [XGTACX_site133] | 7.79 ± 0.58
TCCTTACCTATTAAAGCATGCTCGAATATATATTTT [TGCATGCA_site53] | 7.88 ± 0.7
GTGGACGAAATAGTTGTAAATTTATGTGCAAACCTC [XGTACX_negctrl_site564] | 8.82 ± 0.41
ATATATATATCATATTGTACATACTTGTATTTATAT [XGTACX_site2432] | 9.21 ± 0.13
AACAAAATAAATGTATGTACATATATATATATATAT [XGTACX_site7974] | 9.28 ± 1.1
TATATTAAATATTACACACATACATTTAGTGTCAAA [CACACA_site1990] | 7.7 ± 0.35
TGGGAGCACAGACACACACACACACCGATATATATA [CACACA_site8001] | 8.45 ± 0.67
GCATAAATCAAACACACACACATATATATATATATA [CACACA_site2422] | 9.29 ± 0.23
AATGAATATAGTACTGAATGTAATTTAAGGTTTTCC [CACACA_negctrl_site1548] | 7.53 ± 0.68
TATAATGGATGCTAGCTGCACTAATAAGCAAAAATA | 9.73 ± 0.071
GATGATATATATTAGCGTACATGTATATATACCATT [XGTACX_site6404] | 7.81 ± 0.49
TAAATGAGAAGGACTGCACACTAAAATGGAAGGAGA [CACACA_site8449] | 8.23 ± 0.71
TATTTGTATATATGTGTGCACGTATAATCCATTAAA [GTGCAC_site9569] | 10.7 ± 0.29
AAAATTTCAAATAACACACACTAATATATATCTGTA [CACACA_site4904] | 7.58 ± 0.54

Sequence | gcPBM binding intensity (ln)
ACATAAATAATAAAAACACACATATGTACAGATATA [CACACA_site5112] | 7.84 ± 0.56
AATGGTACATGATACACACACGCACATATATATATT [CACACA_site3425] | 7.9 ± 0.55
ATGTAGATATATATATGTACTAATTAGTAGTTTACG [XGTACX_site6275] | 8 ± 0.41
AGAAAAAATAAAAATAGTACTCAAAAAATTATGAAT [XGTACX_site4908] | 7.57 ± 0.42
AGAAAAAAAAAACACACACACACACCCTCAATATAA [CACACA_site39] | 7.75 ± 0.44
ATTTATATATTGCCCACACACATGTGATTATTTATA [CACACA_site1714] | 8.41 ± 0.42
ATATTAAAAAGAAGTGTGCGCAAAACATTAACTTGA | 9.01 ± 0.5
AATGGATGGTCCAAATGTACATATATATATATATAT [XGTACX_site4800] | 9.39 ± 0.68
TAAATAAACCTGACTTGTACATGTAAAATAAATATA [XGTACX_site1667] | 7.61 ± 0.53
AAAAAAAAAAAAAAAACACACATTTCTTTTTCATAT [CACACA_site11] | 8.79 ± 0.42
AATAATAATATATGTAGTACACATTTCCATTATGTT [XGTACX_site3708] | 7.75 ± 0.27
TTAATTATATATAAAAGTACTTATTTTTCCATATAA [XGTACX_site3033] | 7.48 ± 0.37
TAATAGGAAATTATAGGTACACATACAAATAAATAA [XGTACX_site3587] | 7.87 ± 0.54
AAAATAACGAGTCAAACACACATATTTATATTTATA [CACACA_site7050] | 7.45 ± 0.53
TAATATAACTACATAACACACGAAAATATATGAATC [CACACA_site3628] | 8.01 ± 0.77
TCATTAATCAGGTATGCATGCATAACTATTAAAAAT [TGCATGCA_site90] | 7.75 ± 0.8
GTTATAAATGCATATACACACATACGTACATACATA [CACACA_site7655] | 8.21 ± 0.5
TCTTTTTTTTTTATTTGTACTTATTTTTTTCAAAAA [XGTACX_site3403] | 8.24 ± 0.51
TTATATGAAAAAATATGTACGTATAATGAGAAATAT [XGTACX_site8987] | 8.36 ± 0.63
AAATAGATAAACTAAACACACAAAAAAAAAAAAAAT [CACACA_site1179] | 7.61 ± 0.66
ATTTTAATACTTTTATATTAAATGTAGCACATCATA [XGTACX_negctrl_site273] | 7.83 ± 0.4
AAAAAGTGATTAAAATGTACAAAATGCATAAAAGAA [XGTACX_site6625] | 8.68 ± 0.68
AAAGTAAAAAAAAAAACATGCATACGCTAATTTTTA [TGCATGCA_site301] | 7.49 ± 0.54

Sequence | gcPBM binding intensity (ln)
GATATGTTAAATATATGTACATATATAAACCCAAAC [XGTACX_site6601] | 8.15 ± 0.54
TTATTTATTTAGTAGTGTACTTTTTATATTTATAAT [XGTACX_site5978] | 7.74 ± 0.47
CATTTTTTGCTTTCAACACACATACAATATAAATAA [CACACA_site7858] | 8.21 ± 0.37
AAAAAAAAAAAATACACACACATATATATATATATA [CACACA_site2224] | 9.46 ± 0.32
TATGTAATAAATAGTACACACACACCGATATATATA [CACACA_site8389] | 8.27 ± 0.59
TATAATAATATTATAGTGCATATTATTTATATATAA [GTGCAC_site9820] | 9.72 ± 0.16
ATTTTTATTTTCTTTACACACCACATAACTTTTTTT [CACACA_site7826] | 8.29 ± 0.46
ACTTTTTAATATTTTAGTACACAGTAATTCTTACTA [XGTACX_site1425] | 8.3 ± 0.49
ATATATATATATATATGTACATATATCTACATATAT [XGTACX_site7588] | 9.29 ± 0.81
TTTAATATGAATTTATGTACATATATATATATATAT [XGTACX_site6337] | 9.53 ± 0.54
TATATTAAAAAAAAATGTACATATATATAATATATA [XGTACX_site1935] | 7.72 ± 0.35
TTAAAGAATATTTTCACACATAAAAATTTTAATTTA [CACACA_site4290] | 7.32 ± 0.5
TTATAAAACACAAAATGTACAAAAAATTATAATTAA [XGTACX_site6859] | 7.91 ± 0.57
AATATTATTATCTTACCACACACAATCTACGAAAAG [CACACA_site8006] | 8.07 ± 0.28
TATGTCTTGTTGTAAAATATTTATTAACAAATTGGC [CACACA_negctrl_site1452] | 7.74 ± 0.39
TATATATATATAAGTGCACACTGAACCAAGAAAATT [CACACA_site5637] | 10.5 ± 0.16
TTTTTTTTTTTTTAAATAATCATACATGTGAAATTG [GTGCAC_negctrl_site328] | 7.96 ± 0.71
TTAATAAAAATATATCCACACACATATATATATATG [CACACA_site8091] | 7.8 ± 0.45
ATCATTTATTTTTTAAAAGTATATATATATATATAT [CACACA_negctrl_site220] | 9.38 ± 0.4
TTTTGACATTAACTTAAAAAATAAATAATTATAAAA [XGTACX_negctrl_site552] | 7.78 ± 0.071
ACATATTATAACATATGTACATATATATATATATAA [XGTACX_site5567] | 7.98 ± 0.41
AAATATAAGTTTTATTGTACATTATATAGCATATTT [XGTACX_site6618] | 7.49 ± 0.41
TATCATATAAAACATGCACACATATGTACTCTTATA [CACACA_site9249] | 8.35 ± 0.55

Sequence | gcPBM binding intensity (ln)
CGTTCTATTTAGATATGTACTTAAATATATGATCAT [XGTACX_site2936] | 7.61 ± 0.39
AAAAAATAAGATTGTACACACATAAATTCTTTGTCA [CACACA_site2089] | 7.66 ± 0.47
AATGTGTTCATATATGCACACGCATATATATTATTG [CACACA_site9274] | 9.07 ± 0.2
TATATAAATGGACACACACACACCTTATAATTATTA [CACACA_site6093] | 7.95 ± 0.35
TTTATAAATTGACACACACACATGTGAACATAAAAA [CACACA_site6978] | 7.91 ± 0.55
CCTAATTTTTTTAGTTGTACTTTTTTTTTTTTTTAT [XGTACX_site7948] | 7.79 ± 0.5
GCCTATATGTTTAGTTGTACTCCTAATATTATTTGT [XGTACX_site6060] | 8.1 ± 0.53
CAAATTATTTCGAGGTGTACTTTTTTATATTATATT [XGTACX_site8309] | 7.82 ± 0.55
ATACGTATATAATATACATGCATATATAGCACATAC [TGCATGCA_site376] | 9.11 ± 0.66
ATAAAAAAAAAAAAAAATGAAGCATCACCGTGTAAT [XGTACX_negctrl_site288] | 7.65 ± 0.65
CACGAAAAAAAAAAATGTACATAAAAATATGATACA [XGTACX_site2536] | 7.54 ± 0.3
AAAAAAAAAAAAAAAAAAAAAGGACGGATGGATGGA [GTGCAC_negctrl_site527] | 9.53 ± 0.23
TCTCATTTCAACAACAGTACATATCTATCTGTGTAT [XGTACX_site6897] | 7.66 ± 0.7
GAAAGAGAAATATATACACACATATTTATATTTTTA [CACACA_site2066] | 7.58 ± 0.45
AAATTATAAGTAAAAAGTACTTAATATATAATAAAC [XGTACX_site6065] | 7.91 ± 0.45
CTTATACTTCTACATCGTACAAAAGATGGTATAATT [XGTACX_site2698] | 7.64 ± 0.52
AAAAAAAAAAAAAATAGTACGTAACTATAATTTCCT [XGTACX_site2457] | 8.09 ± 0.49
TATAATTTTTTTTGGGTGCTTGGGTAAATTTTATTA | 8.34 ± 0.42
TAACTTAAATAATACATACACACATGTACATACAGA [CACACA_site1594] | 7.71 ± 0.36
AATTATATATTATCATGTACAAATATAGTAATACAA [XGTACX_site6845] | 7.64 ± 0.48
